{"source": "paper PMC4336329", "about": "(PLoS ONE, 2015)", "note": "About 14,000 (4.5%) of roughly 310,000 compounds showed an effect of 50% or more. Effects have a minus sign here. The list shows a part of the results.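 Further: peak tail current of the secondary pulse compared with the same well before compound.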", "data": [{"target": "human ether-à-go-go-related gene (hERG) potassium channel (human, UniProt Q12809)", "sequence (Q12809 whole entry, looked up)": "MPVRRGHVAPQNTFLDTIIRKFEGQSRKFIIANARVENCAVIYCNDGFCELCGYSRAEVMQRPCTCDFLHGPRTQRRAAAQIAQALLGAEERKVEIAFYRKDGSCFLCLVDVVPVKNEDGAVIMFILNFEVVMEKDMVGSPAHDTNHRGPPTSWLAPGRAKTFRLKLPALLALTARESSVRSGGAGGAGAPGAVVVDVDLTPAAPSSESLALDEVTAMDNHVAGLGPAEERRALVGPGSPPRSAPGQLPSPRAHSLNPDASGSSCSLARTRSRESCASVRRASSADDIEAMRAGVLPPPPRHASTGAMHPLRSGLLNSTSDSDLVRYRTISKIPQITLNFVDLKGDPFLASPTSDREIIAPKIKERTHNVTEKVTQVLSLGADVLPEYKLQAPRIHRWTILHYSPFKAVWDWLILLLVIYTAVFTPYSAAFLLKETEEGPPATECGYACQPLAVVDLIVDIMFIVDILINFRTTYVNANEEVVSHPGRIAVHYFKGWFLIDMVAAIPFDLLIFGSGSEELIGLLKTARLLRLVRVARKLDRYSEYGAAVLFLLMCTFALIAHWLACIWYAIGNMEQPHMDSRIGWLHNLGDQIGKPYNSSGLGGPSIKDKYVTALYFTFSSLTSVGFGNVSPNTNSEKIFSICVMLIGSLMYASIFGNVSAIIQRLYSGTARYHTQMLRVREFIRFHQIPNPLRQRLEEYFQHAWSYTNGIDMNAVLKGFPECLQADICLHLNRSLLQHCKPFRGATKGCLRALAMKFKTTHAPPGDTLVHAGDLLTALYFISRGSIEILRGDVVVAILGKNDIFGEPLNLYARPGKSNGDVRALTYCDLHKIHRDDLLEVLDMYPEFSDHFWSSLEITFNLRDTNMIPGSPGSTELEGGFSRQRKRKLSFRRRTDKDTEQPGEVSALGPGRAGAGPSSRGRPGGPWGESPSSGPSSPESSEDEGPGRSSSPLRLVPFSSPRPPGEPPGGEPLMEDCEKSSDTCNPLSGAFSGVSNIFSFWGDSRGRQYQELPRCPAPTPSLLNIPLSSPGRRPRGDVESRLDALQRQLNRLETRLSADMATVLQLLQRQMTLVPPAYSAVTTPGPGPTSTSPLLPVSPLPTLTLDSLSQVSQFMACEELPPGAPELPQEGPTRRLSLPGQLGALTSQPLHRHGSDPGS", "assay": "primary screen, population patch clamp on CHO cells stably expressing hERG", "units": {"hERG current change (%, negative = inhibition) at 10uM": "%"}, "values": [{"smiles": "Cc1ccc2[nH]c(=O)c(CN(Cc3cccs3)S(=O)(=O)c3ccc4c(c3)OCCO4)cc2c1", "hERG current change (%, negative = inhibition) at 10uM": -0.714}, {"smiles": "Cc1nn(CC(=O)NCCCc2ccccc2)c(=O)c2cccn12", "hERG current change (%, negative = inhibition) at 10uM": -17.1}, {"smiles": "COc1ccc2[nH]cc(CCNC(=O)Nc3ccccc3C)c2c1", "hERG current change (%, negative = inhibition) at 10uM": 13.4}, {"smiles": "Fc1ccccc1N1CCN(Cc2nc(-c3ccccc3)no2)CC1", "hERG current change (%, negative = inhibition) at 10uM": -6.65}, {"smiles": "Cc1cc(NC(=O)CSCC(=O)Nc2ccccc2OC(F)F)no1", "hERG current change (%, negative = inhibition) at 10uM": 15.1}, {"smiles": "COc1ccc(/C=C2\\SC(=S)N(c3cccnc3)C2=O)cc1", "hERG current change (%, negative = inhibition) at 10uM": -4.39}, {"smiles": "Cc1cc(Br)cc(C)c1NC(=S)NC(=O)CC(C)C", "hERG current change (%, negative = inhibition) at 10uM": 6.93}, {"smiles": "COc1ccc(C(=O)N/N=C2\\CCc3ccccc32)cc1OC", "hERG current change (%, negative = inhibition) at 10uM": 8.11}, {"smiles": "Cc1cc(C)n(-c2nnc(N3CCN(c4ccccc4)CC3)nn2)n1", "hERG current change (%, negative = inhibition) at 10uM": -16}, {"smiles": "O=C(COc1cccc2ccccc12)N1CCN(c2ccccn2)CC1", "hERG current change (%, negative = inhibition) at 10uM": -25.1}, {"smiles": "CCOc1ccc(-c2noc(CCC(=O)O)n2)cc1", "hERG current change (%, negative = inhibition) at 10uM": -1.59}, {"smiles": "Cc1cc(C(C)(C)C)cc(C)c1S(=O)(=O)N1CC(=O)Nc2ccccc21", "hERG current change (%, negative = inhibition) at 10uM": 20.5}, {"smiles": "O=C(NCCCN1CCCC1=O)c1ccc2c(c1)OCO2", "hERG current change (%, negative = inhibition) at 10uM": 5.94}, {"smiles": "COc1cc(/C=N/NC(=O)CNC(=O)c2ccncc2)ccc1OC(C)=O", "hERG current change (%, negative = inhibition) at 10uM": 3.31}, {"smiles": "CCOc1cccc(NC(=O)CSc2sc3c(O)cc(=O)[nH]c3c2C#N)c1", "hERG current change (%, negative = inhibition) at 10uM": 18.6}, {"smiles": "COc1ccc(OC)c(NC(=O)C2CC(=O)N(CCc3ccccc3)C2)c1", "note": "(centres unmarked)", "hERG current change (%, negative = inhibition) at 10uM": 2.72}, {"smiles": "CC(C)(C)c1[nH]nc2c1C(c1ccsc1)C(C#N)=C(N)O2", "note": "(centres unmarked)", "hERG current change (%, negative = inhibition) at 10uM": 16.6}, {"smiles": "Cc1ccc2nc(C(F)OC(F)(F)F)[nH]c2c1", "note": "(centres unmarked)", "hERG current change (%, negative = inhibition) at 10uM": -2.79}, {"smiles": "O=C(CC(=O)Nc1ccc(Cl)cc1)N/N=C\\c1cccc(F)c1", "hERG current change (%, negative = inhibition) at 10uM": 16.6}, {"smiles": "COc1ccc(CCC(=O)OCC(=O)c2c(N)n(CC(C)C)c(=O)n(C)c2=O)cc1", "hERG current change (%, negative = inhibition) at 10uM": -33.4}, {"smiles": "NS(=O)(=O)c1ccc(CCNC(=O)COC(=O)CC(c2ccccc2)c2ccccc2)cc1", "hERG current change (%, negative = inhibition) at 10uM": -42}, {"smiles": "O=C(O)CSc1c(O)c2ccccc2[nH]c1=O", "hERG current change (%, negative = inhibition) at 10uM": 1.29}, {"smiles": "NC(=O)C1CCN(C(=O)COc2cccc3ccccc23)CC1", "hERG current change (%, negative = inhibition) at 10uM": -6.03}, {"smiles": "Cc1ccc(CC(=O)Nc2nnc(-c3ccc(F)cc3)o2)c(C)c1", "hERG current change (%, negative = inhibition) at 10uM": 6.04}, {"smiles": "COc1ccc(C(CNC(=O)C2CC(=O)N(Cc3ccccc3)C2)N2CCOCC2)cc1", "note": "(centres unmarked)", "hERG current change (%, negative = inhibition) at 10uM": -14.3}, {"smiles": "CC(Cc1ccccc1)NC(=O)C1CCCNC1=O", "note": "(centres unmarked)", "hERG current change (%, negative = inhibition) at 10uM": 4.99}, {"smiles": "COc1ccc(C(=O)O/N=C(\\C)c2ccccc2)cc1", "hERG current change (%, negative = inhibition) at 10uM": 1.79}, {"smiles": "O=C(Cn1cnc2c(cnn2-c2ccc(F)cc2)c1=O)OCc1ccccc1", "hERG current change (%, negative = inhibition) at 10uM": 6.95}, {"smiles": "O=C(Nc1nnc(SCc2c(Cl)cccc2Cl)s1)c1cccc([N+](=O)[O-])c1", "hERG current change (%, negative = inhibition) at 10uM": 16.4}, {"smiles": "Cc1cc(Br)ccc1NC(=O)c1cnc(N2CCN(c3ccccn3)CC2)c2ccccc12", "hERG current change (%, negative = inhibition) at 10uM": 10}, {"smiles": "CCN1CCN(c2ncc(C(=O)Nc3c(F)cc(F)cc3Br)c3ccccc23)CC1", "hERG current change (%, negative = inhibition) at 10uM": -60}, {"smiles": "Cc1ccc(CCNC(=O)C2CCCN(S(=O)(=O)c3c(C)noc3C)C2)cc1", "note": "(centres unmarked)", "hERG current change (%, negative = inhibition) at 10uM": 3.8}, {"smiles": "O=C(Nc1ccccc1)N1CCCC(CNS(=O)(=O)Cc2ccccc2)C1", "note": "(centres unmarked)", "hERG current change (%, negative = inhibition) at 10uM": -6.25}, {"smiles": "O=C(c1cc(Cl)nc2ccccc12)N1CCN(S(=O)(=O)c2cccc(C(F)(F)F)c2)CC1", "hERG current change (%, negative = inhibition) at 10uM": -12.1}, {"smiles": "COC(=O)c1cc2sc(Cl)cc2n1CC(=O)Nc1cccc(SC)c1", "hERG current change (%, negative = inhibition) at 10uM": -10.9}, {"smiles": "COc1ccc(C)cc1NC(=O)c1ccc2c(SCC(=O)O)c3c(nc2c1)CCCC3", "hERG current change (%, negative = inhibition) at 10uM": 10.9}, {"smiles": "CCn1cc(C(=O)N(C)c2ccc(OC)cc2)c2cc(OC)c(OC)cc2c1=O", "hERG current change (%, negative = inhibition) at 10uM": 11.5}, {"smiles": "COc1cc2c(cc1NC(=O)c1cccnc1)oc1ccccc12", "hERG current change (%, negative = inhibition) at 10uM": 0.994}, {"smiles": "CCN(CC(=O)NCc1cccs1)C(=O)c1cc(S(=O)(=O)N2CCCCC2)ccc1Cl", "hERG current change (%, negative = inhibition) at 10uM": -40.2}, {"smiles": "O=C(NCCc1ccc(Cl)cc1)C1(c2ccccc2)CC1", "hERG current change (%, negative = inhibition) at 10uM": -7.62}, {"smiles": "Cc1ccc(NC(=O)COC(=O)c2ccnn2C)cc1", "hERG current change (%, negative = inhibition) at 10uM": 12.6}, {"smiles": "CCOc1ccc(S(=O)(=O)N2CCOCC2)cc1NC(=O)CSCC(=O)Nc1ccc(C)cc1", "hERG current change (%, negative = inhibition) at 10uM": -18.2}, {"smiles": "CC(=O)N/N=C/c1c(C)[nH]n(-c2ccccc2)c1=O", "hERG current change (%, negative = inhibition) at 10uM": 11.2}, {"smiles": "COc1ccc(C(=O)Nc2nc3ccccc3[nH]2)cc1", "hERG current change (%, negative = inhibition) at 10uM": 16.4}, {"smiles": "COc1ccccc1OCCNC(=O)c1cc(=O)[nH]c2ccccc12", "hERG current change (%, negative = inhibition) at 10uM": -4.62}, {"smiles": "COc1ccc(/C=C/C(=O)NC(=S)N2CCN(c3ccccc3OC)CC2)cc1", "hERG current change (%, negative = inhibition) at 10uM": 15.9}, {"smiles": "NC(=O)c1nnsc1-c1ccc(-c2snnc2C(N)=O)cc1", "hERG current change (%, negative = inhibition) at 10uM": 14.6}, {"smiles": "CCCCN1CC[C@H]2C=CC[C@@H](C(=O)N3CCN(c4ccccc4)CC3)[C@H]2C1=O", "hERG current change (%, negative = inhibition) at 10uM": -1.87}, {"smiles": "CC(C)(C)C(=O)Cn1ncc(N2CCCC2)c(Br)c1=O", "hERG current change (%, negative = inhibition) at 10uM": 1.13}, {"smiles": "CCOC(=O)c1c(C)c(C(=O)NCCCOC)c(C)n1C", "hERG current change (%, negative = inhibition) at 10uM": -11.6}, {"smiles": "O=C(NCc1ccccc1)c1onc(CS(=O)(=O)c2ccc(Cl)cc2)c1C(=O)NCc1ccccc1", "hERG current change (%, negative = inhibition) at 10uM": 14.4}, {"smiles": "Cc1nc(=O)c(-c2ccccc2)c(C)n1-c1cccc(/C=C/C(=O)O)c1", "hERG current change (%, negative = inhibition) at 10uM": 16}, {"smiles": "CCOc1ccc(/C=C(\\C#N)C(=O)Nc2cccnc2)cc1", "hERG current change (%, negative = inhibition) at 10uM": -6.49}, {"smiles": "CC1CC1C(=O)Nc1nc(-c2cccs2)c(-c2cccs2)s1", "note": "(centres unmarked)", "hERG current change (%, negative = inhibition) at 10uM": 6.66}, {"smiles": "CC12CN(NC(=O)c3ccccc3F)C3(C#N)CC1CCC23C", "note": "(centres unmarked)", "hERG current change (%, negative = inhibition) at 10uM": -1.89}, {"smiles": "Cc1ccc(C(=O)CCNc2ccc(F)c(Cl)c2)o1", "hERG current change (%, negative = inhibition) at 10uM": 2.21}]}]}
